Results reported in paper PMC7819943, “Rice protein-binding microarrays: a tool to detect cis-acting elements near promoter regions in rice”.
This is one part of the list.

target: T1, OsWOX13 (Oryza sativa, UniProt Q5QMM3 1-267); test: protein-binding microarray (RPBM); PBS, 2% BSA, 51.3 ng/ul salmon testes DNA, 50 uM zinc acetate, 200 nM TF, 25 C, 1 h; high values mean tight binding; details: protein: recombinant; tags: N-terminal polyhistidine and DsRed monomer fusion (pET32a); label: CyDye5-dUTP incorporated in the synthesized complementary strand; 3' TTTTT single-stranded linker to array surface; dsDNA, one strand shown
T1 sequence: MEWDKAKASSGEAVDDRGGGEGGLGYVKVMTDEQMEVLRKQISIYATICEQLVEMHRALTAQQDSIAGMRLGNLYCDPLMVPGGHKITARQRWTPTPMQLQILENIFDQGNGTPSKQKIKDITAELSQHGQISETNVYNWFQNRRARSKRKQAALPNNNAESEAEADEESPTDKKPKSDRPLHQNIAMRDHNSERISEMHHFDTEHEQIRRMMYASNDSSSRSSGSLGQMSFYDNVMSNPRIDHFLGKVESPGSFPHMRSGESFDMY
Outline: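 Transcription factors were each fused at the N-terminus to a polyhistidine tag plus DsRed and expressed in E. coli BL21-CodonPlus before Ni–NTA purification. Binding to a double-stranded custom Agilent array was carried out with 200 nM protein at 25 °C for 1 h in PBS, 2% BSA, salmon testes DNA and 50 µM zinc acetate. The binding signal is per-feature fluorescence intensity, in arbitrary units, on an Axon 4000B scanner.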

Going from “TCCTCTAATTTTCCTCTTGGGTGGTGCATCAGTATATTCTCGGAGTCACCTAGTGCAG” to “TGTCTCAGATTTACTATAGCTAATTACACAAATTTTGTGGCGGAGTCACCTAGTGCAG”, the binding signal rises from 3440 fluorescence intensity (a.u.) to 4750 fluorescence intensity (a.u.).

Compared with “AATAAAACAACTTGTGATTATGTACATAGACATACTCTTACGGAGTCACCTAGTGCAG”, “TATATGATGAGAGGTTGACGGTTAATTTAGAACATTAGCCCGGAGTCACCTAGTGCAG” is higher in binding signal: 4310 fluorescence intensity (a.u.) for the first, 8870 fluorescence intensity (a.u.) for the second.

Going from “ACAAATTAAACTGTAGCTAGTTAACATATATTTAGAGTCACGGAGTCACCTAGTGCAG” to “AATCTCAAATTTAAACAGATGACAATCCAGTTGTCAAGTACGGAGTCACCTAGTGCAG”, the binding signal falls from 8030 fluorescence intensity (a.u.) to 5560 fluorescence intensity (a.u.).

Compared with “GGGTTAATTTGTACATTGCTCTCTGCCATGGCGGCGCCGGCGGAGTCACCTAGTGCAG”, “GGGTAAAGATCAAAGTTAATTATTCTCGCGATTACTGTCACGGAGTCACCTAGTGCAG” is lower in binding signal: 17600 fluorescence intensity (a.u.) for the first, 4700 fluorescence intensity (a.u.) for the second.

Compared with “GGAAATTGTTGATTTGGACAGGGAAACTGTAATTGGCACCCGGAGTCACCTAGTGCAG”, “GGTTGATGGGCTGACGAACTGGGCAAGTTCGCGTCAAAATCGGAGTCACCTAGTGCAG” is lower in binding signal: 44100 fluorescence intensity (a.u.) for the first, 5670 fluorescence intensity (a.u.) for the second.

First: AAATCAACTAAATTTACAAATATAATTTTAGTTATATATGCGGAGTCACCTAGTGCAG
Second: AAAGGATCAAATTGACCGTATTAATAATACGCTTACTTTGCGGAGTCACCTAGTGCAG
The binding signal of the first is higher: 9790 fluorescence intensity (a.u.) for the first, 5630 fluorescence intensity (a.u.) for the second.

First: CTGATAGATTAATCTTATGGGTGCAGGTGGCAATAGCCGACGGAGTCACCTAGTGCAG
Second: GTTAAATCACAGCCTACAGATTTTCGACCTTCAAAGGAGGCGGAGTCACCTAGTGCAG
The binding signal of the first is higher: 41200 fluorescence intensity (a.u.) for the first, 5480 fluorescence intensity (a.u.) for the second.

First: TCATAAATTTGCCAAATTTGAGCACTTTGCCTATACACTACGGAGTCACCTAGTGCAG
Second: ATCTAATTACCTCGAAAATACATATGGGCACGCGGTAGCTCGGAGTCACCTAGTGCAG
The binding signal of the first is higher: 20000 fluorescence intensity (a.u.) for the first, 18500 fluorescence intensity (a.u.) for the second.

First: CGACGATGATGATGATGATGACGATGACGAAGAAGATGGCCGGAGTCACCTAGTGCAG
Second: CACCAACATTCTATTTTCAACCAATCACAACCCTTTACCACGGAGTCACCTAGTGCAG
The binding signal of the first is higher: 10600 fluorescence intensity (a.u.) for the first, 5180 fluorescence intensity (a.u.) for the second.

First: TTTACTTTTAGATTGATAAGAACACATATATAAAAGTTTTCGGAGTCACCTAGTGCAG
Second: TAGAATTATTATTTATTTTATTTGTGACTTACTTTATTATCGGAGTCACCTAGTGCAG
The binding signal of the first is higher: 12200 fluorescence intensity (a.u.) for the first, 3160 fluorescence intensity (a.u.) for the second.

Compared with “ATGATACGAGTATTAAAACTAATTAGTAATAAATCCTCTGCGGAGTCACCTAGTGCAG”, “AACATAACTTAATTTGTATGAATATGTGTGTTATTAATTGCGGAGTCACCTAGTGCAG” is higher in binding signal: 3840 fluorescence intensity (a.u.) for the first, 11900 fluorescence intensity (a.u.) for the second.

Compared with “TGCATGTAATTAGAATTAAAGAAAACTAATTAAAGATGGACGGAGTCACCTAGTGCAG”, “ACTTTTAACTGCTAGTCATCAACTCATCAGCAACTATCTACGGAGTCACCTAGTGCAG” is lower in binding signal: 16500 fluorescence intensity (a.u.) for the first, 13500 fluorescence intensity (a.u.) for the second.

Compared with “ATAAACTAATAACAAAACAAATTACATATTCCGCCTGTAACGGAGTCACCTAGTGCAG”, “TCAAATTTAAATCTTAATCTCATTATCAATTCCTTCGTGTCGGAGTCACCTAGTGCAG” is higher in binding signal: 10100 fluorescence intensity (a.u.) for the first, 11000 fluorescence intensity (a.u.) for the second.

First: TTAGGAGTAATTGGATATCATAAACAGGAAATTACTGCAGCGGAGTCACCTAGTGCAG
Second: ATCATGGACTAATTAGGCTCAAAAGATTCATCTTGCGATTCGGAGTCACCTAGTGCAG
The binding signal of the first is higher: 20800 fluorescence intensity (a.u.) for the first, 5920 fluorescence intensity (a.u.) for the second.

First: CATTACCAATCAATTTTGCTATATATTTATCGATAAATTTCGGAGTCACCTAGTGCAG
Second: CCATCTGATTAGAGATTTGATCCTATACCTTCCTAAACATCGGAGTCACCTAGTGCAG
The binding signal of the first is lower: 20700 fluorescence intensity (a.u.) for the first, 40700 fluorescence intensity (a.u.) for the second.

Going from “TGATAATAATCATATAATCACTGATGTTACTCATGTGGTACGGAGTCACCTAGTGCAG” to “CTAATTAACATTAAACATTTGTGGAAGGAGGTAATGGTACCGGAGTCACCTAGTGCAG”, the binding signal rises from 19800 fluorescence intensity (a.u.) to 21600 fluorescence intensity (a.u.).

Compared with “TGTAAACTTAAGTTTAAAATTTCAAATTTTGGCTGTGGCTCGGAGTCACCTAGTGCAG”, “ATTAATTAGGTTTAATAAATTCGTCTCGCGGTTTACTAATCGGAGTCACCTAGTGCAG” is higher in binding signal: 5380 fluorescence intensity (a.u.) for the first, 22600 fluorescence intensity (a.u.) for the second.

Going from “ATATAATCCCTGGCTTTGATTTGTTTAGTAGTACCATTTACGGAGTCACCTAGTGCAG” to “CAAATTGACAAAGCACATTCGTTTCCTCACTCGTGTTTTACGGAGTCACCTAGTGCAG”, the binding signal rises from 4260 fluorescence intensity (a.u.) to 24900 fluorescence intensity (a.u.).

Going from “CAAATTAATTAATAAGAGAAAACAAACTGTTCGACCCATCCGGAGTCACCTAGTGCAG” to “CTAAACAGGTAGCTGAGAGGTAGCTGAGAAGATCCAGGCCCGGAGTCACCTAGTGCAG”, the binding signal falls from 36200 fluorescence intensity (a.u.) to 9300 fluorescence intensity (a.u.).

First: CAATATAATATAATAGTTAATTTGCTGCTACAGTTGTTACCGGAGTCACCTAGTGCAG
Second: GTAATAATTTTGTCATCCACTCCTGTATCTGTACGAGTTTCGGAGTCACCTAGTGCAG
The binding signal of the first is lower: 10000 fluorescence intensity (a.u.) for the first, 10300 fluorescence intensity (a.u.) for the second.

Going from “TTCAAACTGATTGTGACGTGTAACCAATTTCATTTGTCACCGGAGTCACCTAGTGCAG” to “CCATCAATTTTCATTTACATCGACAGTAATTCGATTACTACGGAGTCACCTAGTGCAG”, the binding signal falls from 27300 fluorescence intensity (a.u.) to 6400 fluorescence intensity (a.u.).
